Test results taken from patent US11279689B2, “1-(3-(6-(3-hydroxynaphthalen-1-yl)benzofuran-2-yl)azetidin-1 yl)prop-2-en-1-one derivatives and similar compounds as KRAS G12C modulators for treating cancer” (Araxes Pharma LLC, priority 2017, dated 2022).
The name of at least one read-out is uncertain.

biological target: T1, KRAS G12C 1-169, his-tagged protein, GDP-loaded (Homo sapiens, UniProt P01116, G12C); assay: Biochemical assay: covalent binding (modification %) to KRAS G12C by mass spectrometry; conditions: 2 hour incubation period at 10 μM or 8 μM concentration
T1 construct: KRAS G12C 1-169, his-tagged protein, GDP-loaded

Row | Compound | Binding %
1 | C=CC(=O)N1CC(n2ccc3cc(-c4cc(O)cc5ccccc45)cc(F)c32)C1 [Compound 102, 1-(3-(7-fluoro-5-(3-hydroxynaphthalen-1-yl)-1H-indol-1-yl)azetidin-1-yl)prop-2-en-1-one] | +++ (+++ indicates binding activity greater than 50%)
2 | C=CC(=O)N1CC(n2cc(F)c3cc(-c4cc(O)cc5ccccc45)ccc32)C1 [Compound 103, 1-(3-(3-fluoro-5-(3-hydroxynaphthalen-1-yl)-1H-indol-1-yl)azetidin-1-yl)prop-2-en-1-one] | +++ (+++ indicates binding activity greater than 50%)
3 | C=CC(=O)N1CC(n2cnc3ccc(-c4c(O)cccc4F)cc32)C1 [Compound 104, 1-(3-(6-(2-fluoro-6-hydroxyphenyl)-1H-benzo[d]imidazol-1-yl)azetidin-1-yl)prop-2-en-1-one] | + (+ indicates binding activity up to 10%)
4 | C=CC(=O)N1CC(n2cc(C(F)(F)F)c3cc(-c4cc(O)cc5ccccc45)ccc32)C1 [Compound 105, 1-(3-(5-(3-hydroxynaphthalen-1-yl)-3-(trifluoromethyl)-1H-indol-1-yl)azetidin-1-yl)prop-2-en-1-one] | +++ (+++ indicates binding activity greater than 50%)
5 | C=CC(=O)N1CC(n2cc(C(F)(F)F)c3cc(-c4c(C)ccc5[nH]ncc45)ccc32)C1 [Compound 106, 1-(3-(5-(5-methyl-1H-indazol-4-yl)-3-(trifluoromethyl)-1H-indol-1-yl)azetidin-1-yl)prop-2-en-1-one] | ++ (++ indicates binding activity from 10 to 50%)
6 | C=CC(=O)N1CCCC(n2ccc3ccc(-c4cc(O)cc5ccccc45)cc32)C1 (centres unmarked) [Compound 107, 1-(3-(6-(3-hydroxynaphthalen-1-yl)-1H-indol-1-yl)piperidin-1-yl)prop-2-en-1-one] | + (+ indicates binding activity up to 10%)
7 | C=CC(=O)N1CCC(n2cnc3cc(-c4cc(O)cc5ccccc45)ccc32)CC1 [Compound 108, 1-(4-(5-(3-hydroxynaphthalen-1-yl)-1H-benzo[d]imidazol-1-yl)piperidin-1-yl)prop-2-en-1-one] | + (+ indicates binding activity up to 10%)
8 | C=CC(=O)N1CCC(n2cnc3cc(-c4c(O)cccc4F)ccc32)CC1 [Compound 109, 1-(4-(5-(2-fluoro-6-hydroxyphenyl)-1H-benzo[d]imidazol-1-yl)piperidin-1-yl)prop-2-en-1-one] | + (+ indicates binding activity up to 10%)
9 | C=CC(=O)N1CC(n2ccc3c(Cl)c(-c4c(C)ccc5[nH]ncc45)ccc32)C1 [Compound 110, 1-(3-(4-chloro-5-(5-methyl-1H-indazol-4-yl)-1H-indol-1-yl)azetidin-1-yl)prop-2-en-1-one] | ++ (++ indicates binding activity from 10 to 50%)
10 | C=CC(=O)N1CC(n2cc(F)c3cc(-c4c(C)ccc5[nH]ncc45)ccc32)C1 [Compound 111, 1-(3-(3-fluoro-5-(5-methyl-1H-indazol-4-yl)-1H-indol-1-yl)azetidin-1-yl)prop-2-en-1-one] | ++ (++ indicates binding activity from 10 to 50%)
11 | C=CC(=O)N1CC(n2ccc3cc(-c4c(C)ccc5[nH]ncc45)cc(C#N)c32)C1 [Compound 112, 1-(1-acryloylazetidin-3-yl)-5-(5-methyl-1H-indazol-4-yl)-1H-indole-7-carbonitrile] | + (+ indicates binding activity up to 10%)
12 | C=CC(=O)N1CC(n2ccc3cc(-c4cc(O)cc5ccccc45)cc(C#N)c32)C1 [Compound 113, 1-(1-acryloylazetidin-3-yl)-5-(3-hydroxynaphthalen-1-yl)-1H-indole-7-carbonitrile] | +++ (+++ indicates binding activity greater than 50%)
13 | C=CC(=O)N1CCCC(n2cnc3ccc(-c4c(O)cccc4F)cc32)C1 (centres unmarked) [Compound 114, 1-(3-(6-(2-fluoro-6-hydroxyphenyl)-1H-benzo[d]imidazol-1-yl)piperidin-1-yl)prop-2-en-1-one] | + (+ indicates binding activity up to 10%)
14 | C=CC(=O)N1CC(n2ccc3c(C(N)=O)c(-c4cc(O)cc5ccccc45)ccc32)C1 [Compound 115, 1-(1-acryloylazetidin-3-yl)-5-(3-hydroxynaphthalen-1-yl)-1H-indole-4-carboxamide] | +++ (+++ indicates binding activity greater than 50%)
15 | C=CC(=O)N1CC(n2cc(S(C)(=O)=O)c3cc(-c4cc(O)cc5ccccc45)ccc32)C1 [Compound 116, 1-(3-(5-(3-hydroxynaphthalen-1-yl)-3-(methylsulfonyl)-1H-indol-1-yl)azetidin-1-yl)prop-2-en-1-one] | +++ (+++ indicates binding activity greater than 50%)
16 | C=CC(=O)N1CC(n2cc(S(C)(=O)=O)c3cc(-c4c(C)ccc5[nH]ncc45)ccc32)C1 [Compound 117, 1-(3-(5-(5-methyl-1H-indazol-4-yl)-3-(methylsulfonyl)-1H-indol-1-yl)azetidin-1-yl)prop-2-en-1-one] | + (+ indicates binding activity up to 10%)
17 | C=CC(=O)N1CC(n2cc(C(F)(F)F)c3cc(-c4c(C)ccc5[nH]nc(N)c45)ccc32)C1 [Compound 118, 1-(3-(5-(3-amino-5-methyl-1H-indazol-4-yl)-3-(trifluoromethyl)-1H-indol-1-yl)azetidin-1-yl)prop-2-en-1-one] | + (+ indicates binding activity up to 10%)
